Some of the results follow.
Tests used:
[1] = test system: HSkMC (human skeletal muscle cells); assay: cytotoxicity call (relative viability < 0.9); details: 10 µM
[2] = test system: HepG2; assay: cytotoxicity call (relative viability < 0.9); details: 10 µM
[3] = test system: S. aureus RN4220; assay: growth inhibition call (relative growth <= 0.2); details: 50 µM

SMILES	cytotoxicity call [1]	cytotoxicity call [2]	growth inhibition call [3]
C[C@@H]1CN([C@H](C)CO)C(=O)c2cc(NC(=O)NC3CCCCC3)ccc2O[C@@H](C)CCCCO[C@@H]1CN(C)S(=O)(=O)c1ccccc1	inactive	inactive	inactive
Oc1c(Br)cc(Br)c2cccnc12	inactive	active	inactive
COc1ccc2cccc(CCNC(C)=O)c2c1	inactive	inactive	inactive
C[C@@H]1CCCCO[C@H](CN(C)Cc2ccc(Cl)c(Cl)c2)[C@H](C)CN([C@H](C)CO)C(=O)c2cc(NC(=O)CCC(F)(F)F)ccc2O1	inactive	active	inactive
O=S(=O)([O-])c1cc(I)c(O)c2ncccc12.[Na+]	inactive	active	inactive
Cc1noc(C)c1S(=O)(=O)N(C)C[C@H]1OCCCC[C@H](C)Oc2ccc(NC(=O)Nc3ccc(C(F)(F)F)cc3)cc2C(=O)N([C@@H](C)CO)C[C@@H]1C	inactive	active	inactive
CCOC(=O)N(C)C[C@H]1OCc2cnnn2CCCC(=O)N([C@H](C)CO)C[C@@H]1C	inactive	inactive	inactive
O=C(C[C@H]1CC[C@H]2[C@@H](COC[C@@H](O)CN2S(=O)(=O)c2ccccc2F)O1)N1CCC(Cc2ccccc2)CC1	inactive	inactive	inactive
Cc1ccc(S(=O)(=O)Nc2cccc3c2O[C@@H](CN(C)Cc2ccc(-c4ccccc4)cc2)[C@@H](C)CN([C@@H](C)CO)C3=O)cc1	inactive	inactive	inactive
C[C@@H]1CCCCO[C@H](CN(C)C(=O)CCC(F)(F)F)[C@H](C)CN([C@H](C)CO)C(=O)c2cc(NC(=O)C3CCCCC3)ccc2O1	inactive	inactive	inactive
Clc1ccc(Sc2ccc(-c3ccccn3)s2)cc1	inactive	inactive	inactive
CN[C@@H]1[C@@H](O)[C@@H](O[C@@H]2[C@@H](O)[C@H](O[C@H]3O[C@H]([C@@H](C)NC)CC[C@H]3N)[C@@H](N)C[C@H]2N)OC[C@]1(C)O	inactive	inactive	inactive
Cc1noc(C)c1S(=O)(=O)Nc1ccc2c(c1)CC(=O)N([C@H](C)CO)C[C@H](C)[C@H](CN(C)CC1CC1)O2	inactive	inactive	inactive
C[C@H](CO)N1C[C@H](C)[C@@H](CN(C)S(=O)(=O)c2cn(C)cn2)Oc2ccc(NC(=O)CCC(F)(F)F)cc2CC1=O	inactive	inactive	inactive
Cc1noc(C)c1S(=O)(=O)Nc1ccc2c(c1)C(=O)N([C@H](C)CO)C[C@@H](C)[C@@H](CN(C)C(=O)NC(C)C)O2	inactive	inactive	inactive
C[C@H]1CN([C@@H](C)CO)C(=O)c2cc(C3=CCCCC3)cnc2O[C@@H]1CN(C)S(=O)(=O)c1cn(C)cn1	inactive	inactive	inactive
COc1cc2c(cc1OC)CN(C(=O)[C@H]1[C@@H]3C(=O)O[C@@H](c4ccccc4)[C@@H](c4ccccc4)N3[C@@H](c3ccccc3OCCO)[C@]13C(=O)Nc1ccc(C#CC4=CCCCC4)cc13)CC2	inactive	inactive	inactive
COc1ccc(NC(=O)N(C)C[C@@H]2OCCCC[C@H](C)Oc3ccc(NS(=O)(=O)c4ccc(C)cc4)cc3C(=O)N([C@H](C)CO)C[C@H]2C)cc1	inactive	inactive	inactive
NS(=O)(=O)OC[C@H]1C[C@@H](Nc2ccnc3cc(-c4cccc(SC(F)(F)F)c4)nn23)[C@H](O)[C@@H]1O	active	active	inactive
Cc1noc(C)c1NC(=O)N(C)C[C@H]1Oc2c(NC(=O)c3ccc(-c4nccs4)cc3)cccc2C(=O)N([C@H](C)CO)C[C@H]1C	inactive	inactive	inactive
C[C@H](CO)N1C[C@H](C)[C@H](CN(C)C(=O)Cc2ccccn2)Oc2ncc(C#CC3CCCCC3)cc2C1=O	inactive	inactive	inactive
Nc1cncc(Cl)n1	inactive	inactive	inactive
COc1ccc([C@@H]([C@H](Cc2ccccc2)OC(C)=O)N2C[C@@H](CC(=O)N(C)C)[C@@H]3C(=NO[C@H]3c3ccccc3)[C@@H]2Cc2ccccc2)cc1	inactive	inactive	inactive

SMILES	cytotoxicity call [1]	cytotoxicity call [2]	growth inhibition call [3]
C[C@H](CO)N1C[C@H](C)[C@@H](CN(C)S(=O)(=O)c2ccc(Cl)cc2)Oc2c(NC(=O)Nc3cccc4ccccc34)cccc2C1=O	inactive	active	inactive
C[C@@H]1CN([C@H](C)CO)C(=O)c2cc(NC(=O)Nc3ccc(C(F)(F)F)cc3)ccc2O[C@@H](C)CCCCO[C@H]1CN(C)S(=O)(=O)c1ccccc1	inactive	inactive	inactive
C[C@@H]1CCCCO[C@@H](CN(C)Cc2ccc3c(c2)OCO3)[C@@H](C)CN([C@H](C)CO)C(=O)c2cc(NS(=O)(=O)c3cccs3)ccc2O1	inactive	inactive	inactive
COc1ccc(S(=O)(=O)Nc2ccc3c(c2)CC(=O)N([C@@H](C)CO)C[C@H](C)[C@@H](CN(C)Cc2ccncc2)O3)cc1	inactive	inactive	inactive
O=C(C[C@@H]1C=C[C@H](NS(=O)(=O)c2ccc(F)cc2)[C@H](CO)O1)N1CCC(Cc2ccccc2)CC1	inactive	inactive	inactive
CC[C@@H]1/C=C(\C)C[C@H](C)C[C@H](OC)[C@H]2O[C@@](O)(C(=O)C(=O)N3CCCC[C@H]3C(=O)O[C@H](/C(C)=C/[C@@H]3CC[C@H](Cl)[C@H](OC)C3)[C@H](C)[C@@H](O)CC1=O)[C@H](C)C[C@@H]2OC	inactive	inactive	inactive
C[C@H]1CN([C@@H](C)CO)C(=O)CCCn2cc(nn2)CO[C@@H]1CN(C)C(=O)Nc1ccc(N2CCCCC2)cc1	inactive	inactive	inactive
NC(=O)OCC(COC(N)=O)c1ccccc1	inactive	inactive	inactive
C[C@@H]1CN([C@@H](C)CO)C(=O)c2cc(NC(=O)CCCN(C)C)ccc2O[C@@H]1CN(C)Cc1ccc2c(c1)OCO2	inactive	inactive	inactive
Cc1cc(O)c2c(c1)Cc1cccc(O)c1C2=O	inactive	inactive	inactive
Cc1noc(C)c1NC(=O)Nc1ccc2c(c1)C(=O)N([C@H](C)CO)C[C@H](C)[C@@H](CN(C)C(=O)NC1CCCCC1)OCCCC[C@H](C)O2	inactive	inactive	inactive
CCCCCCC#C[Si](O[C@H](c1ccccc1)c1cn([C@H](C)c2ccccc2)nn1)(C(C)C)C(C)C	inactive	inactive	inactive
CC(C)NC(=O)Nc1ccc2c(c1)C(=O)N([C@@H](C)CO)C[C@@H](C)[C@H](CN(C)C(=O)Nc1cccc3ccccc13)OCCCC[C@@H](C)O2	inactive	inactive	inactive
C[C@H]1CN([C@@H](C)CO)C(=O)Cc2cc(NC(=O)Nc3ccc(C(F)(F)F)cc3)ccc2O[C@@H]1CN(C)Cc1ccncc1	inactive	active	inactive
O=C1COC2(CCN(C(=O)C3CCOCC3)CC2)CN1	inactive	inactive	inactive
C[C@H]1CN([C@@H](C)CO)C(=O)Cc2cc(NC(=O)Nc3ccc4c(c3)OCO4)ccc2O[C@H]1CN(C)S(C)(=O)=O	inactive	inactive	inactive
C[C@H]1CN([C@@H](C)CO)C(=O)Cc2cc(NC(=O)Nc3cccc4ccccc34)ccc2O[C@@H]1CN(C)Cc1ccccc1	inactive	inactive	inactive
C[C@@H]1CN([C@H](C)CO)C(=O)CCCn2nncc2CO[C@H]1CN(C)C(=O)Nc1ccnc(N2CCOCC2)c1	inactive	inactive	inactive
C[C@@H]1CN([C@H](C)CO)C(=O)CCCn2nncc2CO[C@@H]1CN(C)C(=O)Nc1ccc2c(c1)OCCO2	inactive	inactive	inactive
CCO[C@@H]1OC(C(=O)N2CCOCC2)=C[C@H](c2coc3ccccc3c2=O)[C@H]1CCCOC(=O)NCCCCCC(=O)NO	inactive	inactive	inactive
COc1cccc(S(=O)(=O)N2C[C@@H](O)COC[C@H]3O[C@@H](CC(=O)NCCCN4CCOCC4)CC[C@@H]32)c1	inactive	inactive	inactive
C[C@H]1CN([C@@H](C)CO)C(=O)c2cccc(NC(=O)Nc3ccc(C(F)(F)F)cc3)c2O[C@@H]1CN(C)Cc1ccc(Cl)c(Cl)c1	active	active	inactive
C[C@H]1CN([C@@H](C)CO)C(=O)c2cc(-c3cccc(C(=O)N(C)C)c3)cnc2O[C@H]1CN(C)S(=O)(=O)c1ccccc1	inactive	inactive	inactive
